{"source": "ChEMBL document CHEMBL1201862", "about": "“PubChem BioAssay data set” (2004)", "note": "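Briefly, cells in 96-well plates were exposed to five compound concentrations for 48 h, and endpoints were estimated by linear interpolation. GI50 marks 50% less growth.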 Activity calls are given as the source filed them. Rule as the data show it: active = GI50 up to about 1.1 µM and inactive = higher."}
{"system": "NCI-H322M", "assay": "inhibition of tumour cell growth, NCI panel, 48 h"}
{"smiles": "COc1ccc2c(c1)-c1oc3ccccc3c(=O)c1CO2", "GI50": "inactive: 52.2 µM"}
{"smiles": "C[C@]12C(=O)C=CCC1=CC[C@@H]1[C@@H]2[C@H]2CC3(O)C(=O)O[C@@]4(C)[C@H]5C[C@@]6(C)[C@@H]7[C@@]2(O)[C@]1(OC[C@H]6C(=O)O5)O[C@]734", "note": "(some centres not stated)", "GI50": "inactive: > 100 µM"}
{"smiles": "NC(=O)c1cn(Cc2ccccc2)c(=O)n1Cc1ccccc1", "GI50": "inactive: > 100 µM"}
{"smiles": "CN(C)/C=N\\c1nncc2[nH]nnc12", "GI50": "inactive: > 100 µM"}
{"smiles": "COC(=O)C1C(=O)C(C(=O)OC)C2CCC1N2C", "note": "(configuration not stated)", "GI50": "inactive: > 100 µM"}
{"smiles": "O=[N+]([O-])c1ccc(Sc2c3ccccc3nc3cc(Cl)ccc23)cc1", "GI50": "inactive: > 10 µM"}
{"smiles": "CCC(O)(Cc1ccc(OC)cc1)c1ccc(OC)cc1", "note": "(configuration not stated)", "GI50": "inactive: > 100 µM"}
{"smiles": "CC(=O)OC1(C(C)=O)CC2(c3ccccc3)OC1(c1ccccc1)c1ccccc12", "note": "(configuration not stated)", "GI50": "inactive: 67.5 µM"}
{"smiles": "O=C(c1ccccc1)c1c(-c2ccccc2)n(-c2ccccc2)[nH]c(=O)c1=O", "GI50": "inactive: 79.6 µM"}
{"smiles": "COc1ccc(Nc2nc3ccccc3nc2C(=O)O)cc1", "GI50": "inactive: > 100 µM"}
{"smiles": "CN(C)Cc1cc(C=O)cc(CN(C)C)c1O", "GI50": "inactive: > 100 µM"}
{"smiles": "O=C1CC(C[C@H](O)C2CCCCC2O)CC(=O)N1Cc1ccccc1", "note": "(some centres not stated)", "GI50": "inactive: > 100 µM"}
{"smiles": "Nc1ccc2nc3n(c2c1)C(c1c(F)cccc1F)SC3", "note": "(configuration not stated)", "GI50": "inactive: > 100 µM"}
{"smiles": "COc1ccc(-c2c(N)n(-c3cc(OC)cc(OC)c3)c(=O)c3cc([N+](=O)[O-])ccc23)cc1", "GI50": "inactive: > 100 µM"}
{"smiles": "N#CC(C#N)=Cc1cccc(Oc2ccccc2)c1", "GI50": "inactive: 42.6 µM"}
{"smiles": "COc1ccccc1-n1c(C)nc2ccccc2c1=O", "GI50": "inactive: > 100 µM"}
{"smiles": "COC(=O)C1=C(C)N2[C@H](C(=O)O)CS[C@@]2(C)[C@H](C(=O)OC)[C@H]1c1cccc([N+](=O)[O-])c1", "GI50": "inactive: > 100 µM"}
{"smiles": "CCOc1cc2c(cc1OC(C)=O)C(=O)CC[C@H]1C3CC[C@H](OC(C)=O)[C@@]3(C)CC[C@H]21", "note": "(some centres not stated)", "GI50": "inactive: > 100 µM"}
{"smiles": "COC1(C)CC2N(C(=O)c3ccccc3)N=C(c3ccccc3)CC2(C)O1", "note": "(configuration not stated)", "GI50": "inactive: > 100 µM"}
{"smiles": "C[Si](C)(C)OC1c2[nH]c3ccccc3c2CN2C(=O)CCC12", "note": "(configuration not stated)", "GI50": "inactive: > 100 µM"}
{"smiles": "O=NC1c2cccc3cccc(c23)C1N=O", "note": "(configuration not stated)", "GI50": "inactive: 11.1 µM"}
{"smiles": "COC(O)C(=O)c1c2c(cc3c1CCC3)CCC2", "note": "(configuration not stated)", "GI50": "inactive: > 100 µM"}
{"smiles": "CC1=C(C(=O)OC(C)C)C(c2ccccc2C(F)(F)F)C(C(=O)OC(CO[N+](=O)[O-])CO[N+](=O)[O-])=C(C)N1", "note": "(configuration not stated)", "GI50": "inactive: 28.1 µM"}
{"smiles": "CCN(CCCl)c1cc(CN(C)C)cc(NC(=O)c2ccc(C(=O)Nc3cccc(N(CCCl)NN)c3)cc2)c1", "GI50": "active: 0.126 µM"}
{"smiles": "C=C1C(=O)OC2CC1C(O)C/C(C)=C/CC/C(C)=C/C(O)CC2C", "note": "(configuration not stated)", "GI50": "inactive: 10.7 µM"}
{"smiles": "O=C(CN1C(=O)c2ccccc2C1=O)OC1C=CCCC1", "note": "(configuration not stated)", "GI50": "inactive: > 100 µM"}
{"smiles": "CC1(CO)OC(n2cc(C(=O)NC(=O)OCc3ccccc3)c(=O)[nH]c2=O)CC1O", "note": "(configuration not stated)", "GI50": "inactive: > 100 µM"}
{"smiles": "O=[N+]([O-])C(=C(Nc1cccc2cccnc12)Nc1cccc2cccnc12)C(Cl)=C(Cl)Cl", "GI50": "inactive: 98.4 µM"}
{"smiles": "Cc1cc2c(c(=O)n1C)SCC2", "GI50": "inactive: > 100 µM"}
{"smiles": "CC(=O)Nc1ccc(C2[C@H]3C(=O)N(c4ccc(Cc5ccc(N6C(=O)[C@@H]7ON(c8ccccc8)C(c8ccc(NC(C)=O)cc8)[C@@H]7C6=O)cc5)cc4)C(=O)[C@H]3ON2c2ccccc2)cc1", "note": "(some centres not stated)", "GI50": "inactive: > 100 µM"}
{"smiles": "C[N+](C)(C)CC1CCCCC1O", "note": "(configuration not stated)", "GI50": "inactive: > 100 µM"}
{"smiles": "S=C(NN=C1NCCCCN1)Nc1ccc(Cl)cc1", "GI50": "inactive: 29.3 µM"}
{"smiles": "COc1ccc([Se][Se]c2ccc(OC)cc2OC)c(OC)c1", "GI50": "inactive: 11.6 µM"}
{"smiles": "CC(C)(C)NC(=S)N/N=C/c1ccccn1", "GI50": "active: 0.237 µM"}
{"smiles": "NC(=O)c1ncn2c1NCC1OC2C(O)C1O", "note": "(configuration not stated)", "GI50": "inactive: > 100 µM"}
{"smiles": "C/C=C1\\C(=O)O[C@H]2C/C(C)=C/CC/C(C)=C/CC[C@@]3(C)O[C@@H]3C[C@@H]12", "GI50": "inactive: > 100 µM"}
{"smiles": "COc1ccc2ccccc2c1/C=C/C(=O)c1ccccc1", "GI50": "inactive: 3.66 µM"}
{"smiles": "Nc1nc(N)c2ncn(CCCC(c3ccccc3)P(=O)(O)O)c2n1", "note": "(configuration not stated)", "GI50": "inactive: > 100 µM"}
{"smiles": "COCC1N=C(c2cc(OC)c(OC)c(OC)c2-c2cc3c(cc2[C@@H](C)O)OCO3)O[C@H]1c1ccccc1", "note": "(some centres not stated)", "GI50": "inactive: > 100 µM"}
{"smiles": "CSc1ccc2c(cc1=O)C(NC(=O)c1ccccc1)CCc1cc(O)c(O)c(O)c1-2", "note": "(configuration not stated)", "GI50": "inactive: 3.59 µM"}
{"smiles": "CN(CC#N)C1CCCC[C@H]1O", "note": "(some centres not stated)", "GI50": "inactive: > 100 µM"}
{"smiles": "C[Si](C)(C)[C@@]1([Se]c2ccccc2)CC[C@@H]1C(=O)c1ccccc1", "GI50": "inactive: > 100 µM"}
{"smiles": "CC(C)(O)[C@@H]1CC[C@](C)(C2[C@@H](O)C[C@@]3(C)C4C[C@H](OC5OCC(O)C(O)C5O)[C@H]5C(C)(C)[C@@H](OC6OCC(O)C(O)C6OC6OCC(O)C(O)C6O)CC[C@@]56C[C@@]46CC[C@]23C)O1", "note": "(some centres not stated)", "GI50": "inactive: > 100 µM"}
{"smiles": "O=C1Nc2ccc(Br)cc2/C1=C/C(=O)c1ccccc1", "GI50": "inactive: 17.2 µM"}
{"smiles": "C=C1C(=O)O[C@@H]2/C=C(/C)[C@@H](OC(C)=O)C[C@@H](O)/C(C)=C\\[C@@H](OC(=O)[C@]3(C)O[C@@H]3C)[C@@H]12", "GI50": "inactive: 66.4 µM"}
{"smiles": "CC(C)=CCC/C(C)=C\\CC/C(C)=C/CO", "GI50": "inactive: 45.4 µM"}
{"smiles": "O=c1oc2ccccc2c(O)c1C1c2c(c3ccccc3oc2=O)Oc2c1c(=O)oc1ccccc21", "GI50": "inactive: 54.6 µM"}
